# Measured values as given in the supplement of paper PMC8728848.
# The list shows a part of the results.
# B1: PX9961U-pdi-543-24-543 (Parabacteroides distasonis) (protein)
# chain: EEPVGEFLPGQVESEENIEGIVTGAYAVLDGYYASDAINSGCSNWQFGDVVSDDAYKGGGGTGDQNQIHLMEIFNANPTGIDFEARWAALYEGIKRCNQAIRLLNGSEVKNKEQRLAEMRFLRGHYYFNLKIIYNQIPWIDETLVDPNEYNKKSNIEFSSDQLWEKILEEFSAAYKVLPESQADYGRPTKMAARAYMAKVYLYQSKWKECLEACDEVIQSGKYELFPDFRNVFLPENDNCSEIIFAIQLSINDGSPNNENGSYGDRLLPPGGPYPVYGFLRPTQNLVNAYKTDVKGLPYNDGKDVSENDYVDVRLDHTLARPNIPFMDVQLYDWTPREASVYGPYSPKKRLVSLNSTYYSPIWPYVNALNFYVIRYADLLLWRAEAAIETGDLETGRKYINMIRERAKNTQHVKTMDQSQDAANYKVGVYDEPFKSKNEAVQALRMERRLEMAHEGIRFFDLVRWGVADEVINAYIAKEKVFRSHLQNAHFVKGKHEYFPIPQSMIDICGTEVMKQNPGY
# Key:
# Assay in all cases: glycan array binding signal (z-score within array); higher = stronger binding
# Details in all cases: glycan notation: IUPAC condensed, linker removed
# [1] = biological target: Fuc(a1-2)[Gal(a1-3)]Gal(b1-4)GlcNAc(b1-2)Man(a1-3)[Fuc(a1-2)[Gal(a1-3)]Gal(b1-4)GlcNAc(b1-2)Man(a1-6)]Man(b1-4)GlcNAc(b1-4)[Fuc(a1-6)]GlcNAc
# Outline: (§1)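 From the Consortium for Functional Glycomics database, 3228 arrays were curated, keeping only those whose protein sequence was available. Binding is given as a within-array Z-score averaged across arrays sharing a protein sequence and across linkers. Negative Z-scores can be read as non-binding.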
# [2] = biological target: Fuc(a1-2)[Gal(a1-3)]Gal(b1-4)GlcNAc(b1-3)GalNAc
# Outline: as §1
# [3] = biological target: Fuc(a1-2)[Gal(a1-3)]Gal(b1-4)GlcNAc(b1-3)[Fuc(a1-2)[Gal(a1-3)]Gal(b1-4)GlcNAc(b1-6)]GalNAc
# Outline: as §1
# [4] = biological target: Fuc(a1-2)[Gal(a1-3)]Gal(b1-4)GlcNAc(b1-6)GalNAc
# Outline: as §1
# [5] = biological target: Fuc(a1-2)[Gal(a1-3)]Gal(b1-4)[Fuc(a1-3)]Glc
# Outline: as §1
# [6] = biological target: Fuc(a1-2)[Gal(a1-3)]Gal(b1-4)[Fuc(a1-3)]GlcNAc
# Outline: as §1
# [7] = biological target: Fuc(a1-2)[Gal(a1-3)]Gal(b1-4)[Fuc(a1-3)]GlcNAc(b1-3)GalNAc
# Outline: as §1
# [8] = biological target: Fuc(a1-2)[Gal(a1-4)]Gal(b1-4)GlcNAc
# Outline: as §1
# [9] = biological target: Fuc(a1-2)[GalNAc(a1-3)]Gal
# Outline: as §1
# [10] = biological target: Fuc(a1-2)[GalNAc(a1-3)]Gal(b1-3)GalNAc(a1-3)[Fuc(a1-2)]Gal(b1-4)GlcNAc
# Outline: as §1
# [11] = biological target: Fuc(a1-2)[GalNAc(a1-3)]Gal(b1-3)GalNAc(b1-3)Gal(a1-4)Gal(b1-4)Glc
# Outline: as §1
# [12] = biological target: Fuc(a1-2)[GalNAc(a1-3)]Gal(b1-3)GlcNAc
# Outline: as §1
# [13] = biological target: Fuc(a1-2)[GalNAc(a1-3)]Gal(b1-3)GlcNAc(b1-2)Man(a1-3)[Fuc(a1-2)[GalNAc(a1-3)]Gal(b1-3)GlcNAc(b1-2)Man(a1-6)]Man(b1-4)GlcNAc(b1-4)GlcNAc
# Outline: as §1
# [14] = biological target: Fuc(a1-2)[GalNAc(a1-3)]Gal(b1-3)GlcNAc(b1-2)Man(a1-3)[Fuc(a1-2)[GalNAc(a1-3)]Gal(b1-3)GlcNAc(b1-2)Man(a1-6)]Man(b1-4)GlcNAc(b1-4)[Fuc(a1-6)]GlcNAc
# Outline: as §1
# [15] = biological target: Fuc(a1-2)[GalNAc(a1-3)]Gal(b1-3)GlcNAc(b1-3)GalNAc
# Outline: as §1
# [16] = biological target: Fuc(a1-2)[GalNAc(a1-3)]Gal(b1-3)GlcNAc(b1-6)GalNAc
# Outline: as §1
# [17] = biological target: Fuc(a1-2)[GalNAc(a1-3)]Gal(b1-4)Glc
# Outline: as §1
# [18] = biological target: Fuc(a1-2)[GalNAc(a1-3)]Gal(b1-4)GlcNAc
# Outline: as §1
# [19] = biological target: Fuc(a1-2)[GalNAc(a1-3)]Gal(b1-4)GlcNAc(b1-2)Man
# Outline: as §1
# [20] = biological target: Fuc(a1-2)[GalNAc(a1-3)]Gal(b1-4)GlcNAc(b1-2)Man(a1-3)[Fuc(a1-2)[GalNAc(a1-3)]Gal(b1-4)GlcNAc(b1-2)Man(a1-6)]Man(b1-4)GlcNAc(b1-4)GlcNAc
# Outline: as §1
# [21] = biological target: Fuc(a1-2)[GalNAc(a1-3)]Gal(b1-4)GlcNAc(b1-2)Man(a1-3)[Fuc(a1-2)[GalNAc(a1-3)]Gal(b1-4)GlcNAc(b1-2)Man(a1-6)]Man(b1-4)GlcNAc(b1-4)[Fuc(a1-6)]GlcNAc
# Outline: as §1
# [22] = biological target: Fuc(a1-2)[GalNAc(a1-3)]Gal(b1-4)GlcNAc(b1-3)Gal(b1-4)GlcNAc
# Outline: as §1
# [23] = biological target: Fuc(a1-2)[GalNAc(a1-3)]Gal(b1-4)GlcNAc(b1-3)Gal(b1-4)GlcNAc(b1-3)Gal(b1-4)GlcNAc
# Outline: as §1
# [24] = biological target: Fuc(a1-2)[GalNAc(a1-3)]Gal(b1-4)GlcNAc(b1-3)GalNAc
# Outline: as §1
# [25] = biological target: Fuc(a1-2)[GalNAc(a1-3)]Gal(b1-4)GlcNAc(b1-3)[Fuc(a1-2)[GalNAc(a1-3)]Gal(b1-4)GlcNAc(b1-6)]GalNAc
# Outline: as §1
# [26] = biological target: Fuc(a1-2)[GalNAc(a1-3)]Gal(b1-4)GlcNAc(b1-6)GalNAc
# Outline: as §1
# [27] = biological target: Fuc(a1-2)[GalNAc(a1-3)]Gal(b1-4)[Fuc(a1-3)]GlcNAc
# Outline: as §1
# [28] = biological target: Fuc(a1-2)[GalNAc(a1-3)]Gal(b1-4)[Fuc(a1-3)]GlcNAc(b1-3)GalNAc
# Outline: as §1
# [29] = biological target: Fuc(a1-2)[GalNAc(a1-4)]Gal(b1-4)GlcNAc
# Outline: as §1
# [30] = biological target: Fuc(a1-2)[GalNAc(b1-3)]Gal
# Outline: as §1
# Fuc(a1-3)GlcNAc = biological target: Fuc(a1-3)GlcNAc
# Outline: as §1
# [31] = biological target: Fuc(a1-3)[Gal(b1-4)]Glc6S
# Outline: as §1
# [32] = biological target: Fuc(a1-3)[Gal(b1-4)]GlcNAc
# Outline: as §1
# [33] = biological target: Fuc(a1-3)[Gal(b1-4)]GlcNAc(b1-2)Man
# Outline: as §1
# [34] = biological target: Fuc(a1-3)[Gal(b1-4)]GlcNAc(b1-2)Man(a1-3)[Fuc(a1-3)[Gal(b1-4)]GlcNAc(b1-2)Man(a1-6)]Man(b1-4)GlcNAc(b1-4)GlcNAc
# Outline: as §1
# [35] = biological target: Fuc(a1-3)[Gal(b1-4)]GlcNAc(b1-2)Man(a1-3)[Fuc(a1-3)[Gal(b1-4)]GlcNAc(b1-2)Man(a1-6)]Man(b1-4)GlcNAc(b1-4)[Fuc(a1-6)]GlcNAc
# Outline: as §1
# [36] = biological target: Fuc(a1-3)[Gal(b1-4)]GlcNAc(b1-3)Gal(b1-3)[Fuc(a1-4)]GlcNAc
# Outline: as §1
# [37] = biological target: Fuc(a1-3)[Gal(b1-4)]GlcNAc(b1-3)Gal(b1-4)[Fuc(a1-3)]GlcNAc
# Outline: as §1
# [38] = biological target: Fuc(a1-3)[Gal(b1-4)]GlcNAc(b1-3)Gal(b1-4)[Fuc(a1-3)]GlcNAc(b1-3)Gal(b1-4)[Fuc(a1-3)]GlcNAc
# Outline: as §1
# [39] = biological target: Fuc(a1-3)[Gal(b1-4)]GlcNAc(b1-3)GalNAc
# Outline: as §1
# [40] = biological target: Fuc(a1-3)[Gal(b1-4)]GlcNAc(b1-6)GalNAc
# Outline: as §1
# [41] = biological target: Fuc(a1-3)[Gal(b1-4)]GlcNAc(b1-6)[Gal(b1-3)GlcNAc(b1-3)]Gal(b1-4)Glc
# Outline: as §1
# [42] = biological target: Fuc(a1-3)[Gal(b1-4)]GlcNAc6S
# Outline: as §1
# [43] = biological target: Fuc(a1-3)[Gal3S(b1-4)]Glc
# Outline: as §1
# [44] = biological target: Fuc(a1-3)[Gal3S(b1-4)]GlcNAc
# Outline: as §1
binder,measurement,setting,value
B1,glycan array binding signal (z-score),[1],-0.268
same,glycan array binding signal (z-score),[2],-0.25
same,glycan array binding signal (z-score),[3],-0.047
same,glycan array binding signal (z-score),[4],-0.365
same,glycan array binding signal (z-score),[5],-0.381
same,glycan array binding signal (z-score),[6],-0.345
same,glycan array binding signal (z-score),[7],0.272
same,glycan array binding signal (z-score),[8],-0.379
same,glycan array binding signal (z-score),[9],-0.213
same,glycan array binding signal (z-score),[10],-0.338
same,glycan array binding signal (z-score),[11],-0.424
same,glycan array binding signal (z-score),[12],-0.274
same,glycan array binding signal (z-score),[13],-0.368
same,glycan array binding signal (z-score),[14],-0.351
same,glycan array binding signal (z-score),[15],-0.197
same,glycan array binding signal (z-score),[16],0.015
same,glycan array binding signal (z-score),[17],-0.378
same,glycan array binding signal (z-score),[18],-0.304
same,glycan array binding signal (z-score),[19],-0.331
same,glycan array binding signal (z-score),[20],1.34
same,glycan array binding signal (z-score),[21],1.18
same,glycan array binding signal (z-score),[22],-0.461
same,glycan array binding signal (z-score),[23],0.083
same,glycan array binding signal (z-score),[24],-0.275
same,glycan array binding signal (z-score),[25],-0.413
same,glycan array binding signal (z-score),[26],-0.413
same,glycan array binding signal (z-score),[27],-0.275
same,glycan array binding signal (z-score),[28],2.58
same,glycan array binding signal (z-score),[29],1.52
same,glycan array binding signal (z-score),[30],-0.382
same,glycan array binding signal (z-score),Fuc(a1-3)GlcNAc,-0.428
same,glycan array binding signal (z-score),[31],-0.319
same,glycan array binding signal (z-score),[32],-0.33
same,glycan array binding signal (z-score),[33],-0.413
same,glycan array binding signal (z-score),[34],0.28
same,glycan array binding signal (z-score),[35],1.15
same,glycan array binding signal (z-score),[36],-0.382
same,glycan array binding signal (z-score),[37],-0.37
same,glycan array binding signal (z-score),[38],-0.416
same,glycan array binding signal (z-score),[39],0.514
same,glycan array binding signal (z-score),[40],0.082
same,glycan array binding signal (z-score),[41],-0.327
same,glycan array binding signal (z-score),[42],0.485
same,glycan array binding signal (z-score),[43],-0.401
same,glycan array binding signal (z-score),[44],-0.394
